Results reported in PubChem BioAssay AID488969 (Vanderbilt High Throughput Screening Facility, 2010).
Whole data set: some 110,000 compounds, median “z-score” near -0.1, cut for the highest 2% near 2. Some of the results follow. The source made the active and inactive calls.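 The calls were made as follows: active = z-score in the third read window above 3 or below -3; inactive = the rest.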

Each compound was assayed against Metabotropic glutamate receptor 8 (Rattus norvegicus) (UniProt P70579) (assay: mGluR8 Gi/Go-coupled signaling modulation – cell-based, rat, thallium flux, HTS, primary screen (AID 488969)). Settings: HEK293 rat mGluR8, GIRK (G protein-gated inwardly rectifying potassium channel) thallium flux, FluoZin2; at 10 µM; stronger effect = higher value; submaximal glutamate (EC20) added with thallium.
UniProt P70579, sequence (P70579 whole entry, looked up): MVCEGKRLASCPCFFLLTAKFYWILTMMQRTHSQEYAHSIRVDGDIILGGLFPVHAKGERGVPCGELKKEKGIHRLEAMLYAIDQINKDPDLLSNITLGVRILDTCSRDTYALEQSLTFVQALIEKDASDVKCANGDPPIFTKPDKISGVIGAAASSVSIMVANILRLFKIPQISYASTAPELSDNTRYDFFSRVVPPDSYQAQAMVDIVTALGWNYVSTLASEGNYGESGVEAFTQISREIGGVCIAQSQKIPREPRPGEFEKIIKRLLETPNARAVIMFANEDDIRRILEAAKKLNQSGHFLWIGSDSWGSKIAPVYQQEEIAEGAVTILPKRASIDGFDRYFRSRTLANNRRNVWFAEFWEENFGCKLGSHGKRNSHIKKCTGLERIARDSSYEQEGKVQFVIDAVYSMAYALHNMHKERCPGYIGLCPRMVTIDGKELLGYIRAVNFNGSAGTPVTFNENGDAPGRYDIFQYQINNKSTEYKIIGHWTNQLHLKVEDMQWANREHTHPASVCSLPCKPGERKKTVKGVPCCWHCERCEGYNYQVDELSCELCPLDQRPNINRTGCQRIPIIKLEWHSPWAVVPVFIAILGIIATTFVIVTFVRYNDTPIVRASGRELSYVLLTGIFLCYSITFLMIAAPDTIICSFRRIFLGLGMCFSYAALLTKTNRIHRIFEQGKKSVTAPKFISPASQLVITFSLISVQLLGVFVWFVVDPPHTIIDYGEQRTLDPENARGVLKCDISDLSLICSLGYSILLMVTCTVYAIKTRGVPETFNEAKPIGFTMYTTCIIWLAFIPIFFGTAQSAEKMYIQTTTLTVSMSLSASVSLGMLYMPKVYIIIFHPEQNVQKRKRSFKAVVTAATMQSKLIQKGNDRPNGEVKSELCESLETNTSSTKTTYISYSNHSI
Compound `C=CCNC(=O)/C(=C\c1ccc([N+](=O)[O-])cc1)NC(C)=O` has a z-score of -0.158. In the case of `Cc1cccc(C)c1NC(=S)N(c1ccccc1)C(C)C`, the z-score is reported as -0.568. `Cc1ccc(NC(=S)NNC(=O)c2nn(C)cc2Cl)cc1` was tested, and the z-score was -0.547. Work on `CCCOc1ccc(C(=O)NCC(c2ccco2)N(C)C)cc1OC` (centres undefined) yielded a z-score of 0.199. `N#Cc1c(-c2ccccc2)c(-c2ccccc2)n(Cc2ccco2)c1NC(=O)c1cccs1` gave a z-score of -0.156. `O=C(Nc1ccccc1)OC1CCC2CC1CCC2OC(=O)Nc1ccccc1` (centres undefined) was tested, and the z-score was 0.663. Work on `O=C(Oc1ccc(F)cc1C(=O)/C=C/c1cccs1)c1cccc([N+](=O)[O-])c1` yielded a z-score of 0.0714. Work on `COc1ccc(/C=C2/SC(c3ccc(C)cc3)=NC2=O)cc1OC` yielded a z-score of 0.0235. `CSc1nc(-c2ccco2)nn1C(=O)c1ccccc1` gave a z-score of -0.177. `C=CCNC1=C(Cl)C(=O)c2ccccc2C1=O` gave a z-score of -0.82. With `CC1(C)C(C=C(Cl)Cl)C1C(=O)Nc1ccc([N+](=O)[O-])cc1` (centres undefined) the z-score was -0.275. `N#C/C(=N\Nc1c(Cl)cccc1Cl)C(=O)NN` gave a z-score of -0.152. `Cn1c(=O)c2c(ncn2CC(=O)OCC(=O)Nc2ccccc2Cl)n(C)c1=O` was tested, and the z-score was -0.159. Compound `O=C(O)C1CCCCC1C(=O)NCc1ccc(F)cc1` (centres undefined) has a z-score of -0.0598. In the case of `C=CCOc1ccc(CNc2ccc(NC(=O)CCC)cc2)cc1OCC`, the z-score is reported as -0.288. `CC(C)[C@H](NC(=O)Nc1ccc2c(c1)OCCO2)C(=O)O` gave a z-score of -0.245. With `Cc1cc(NC(=O)C2CCCN(S(=O)(=O)c3c(C)noc3C)C2)n[nH]1` (centres undefined) the z-score was 0.383. For `COc1ccc(CCNC(=O)c2ccc(CS(=O)(=O)c3ccc(Cl)cc3)o2)cc1OC`, the z-score was -0.0275. `CC(=O)Nc1ccccc1-c1nc2ccc(C(=O)N3CCN(c4ccccc4)CC3)cc2[nH]c1=O` gave a z-score of -0.0342. With `O=C(Cn1cnc2c(nnn2Cc2ccccc2F)c1=O)NCC1CCCO1` (centres undefined) the z-score was 0.111. Compound `O=C(CN1C(=O)C2CC=CCC2C1=O)NC1CCCc2ccccc21` (centres undefined) has a z-score of -0.0984. For `O=C(NCc1nc2ccccc2[nH]1)c1cccs1`, the z-score was -0.444. With `CCOC(=O)c1c(NC(=O)Cn2c(=O)oc3ccccc32)oc(C)c1C(C)=O` the z-score was -0.0534. Work on `Cc1nn(-c2ccccc2)c(C)c1C(=O)OCC(=O)NC12CC3CC(CC(C3)C1)C2` yielded a z-score of -0.731. With `Cc1cc(C)n(CC(=O)N/N=C/c2ccc(C)o2)n1` the z-score was -0.0886. With `O=C(CNC(=O)C12CC3CC(CC(C3)C1)C2)N1CCN(S(=O)(=O)c2cccs2)CC1` the z-score was -0.178. Work on `CCN(CC)S(=O)(=O)c1cccc(NC(=O)c2cc(-c3cccs3)nn2-c2ccccc2)c1` yielded a z-score of -0.292. `O=C(COc1cc(Cl)c(Cl)cc1Cl)NC(=O)NC1CCCC1` gave a z-score of -0.00654. `Cc1nn(C(C)c2n[nH]c(=S)n2-c2cccc(Cl)c2)c(C)c1[N+](=O)[O-]` (centres undefined) gave a z-score of -0.0289. `CC(C)n1cc(/C=N/NC(=O)COc2cccc3cccnc23)c2ccccc21` was tested, and the z-score was -0.481. Compound `Cc1cc(C)nc(SCc2ccc(C(=O)N/N=C/C3CCCCC3)cc2)n1` has a z-score of 0.0492. In the case of `N#Cc1c(NCCN)nc(-c2ccccc2)c2c1CCCC2`, the z-score is reported as 0.97. `c1cc2ccc3ccc(-n4cnnn4)c4ccc(c1)c2c34` was tested, and the z-score was -0.193. `COc1ccc(NC(=O)C2CCC(C)(C(=O)O)C2(C)C)cc1` (centres undefined) gave a z-score of -0.258. Compound `CC(Oc1ccc(C(C)(C)C)cc1)c1ccnc2nc(/N=C/N(C)C)nn12` (centres undefined) has a z-score of -0.181. `CN(C)C(=O)c1c([N+](=O)[O-])ncn1C` gave a z-score of -0.0559. Work on `CC1=CC(C)(C)Nc2ccc(OC(=O)C(C)N3C(=O)c4ccccc4C3=O)cc21` (centres undefined) yielded a z-score of -0.257. `CCOC(=O)N1CCN(c2c(N3CC=C(c4ccccc4)CC3)c(=O)c2=O)CC1` was tested, and the z-score was -0.121. `CCCC(=O)Nc1ccc(Cl)c(NC(=O)C(C)(C)C)c1` gave a z-score of -0.219. Work on `O=C1C2C3C=CC(C3)C2C(=O)N1c1ccc2c(c1)OCO2` (centres undefined) yielded a z-score of 0.364. With `Cc1ccccc1OCCCC(=O)Nc1ccc(Br)cc1` the z-score was -0.372. With `COc1ccc(-c2cc(C(=O)NCc3ccco3)no2)cc1OC` the z-score was -0.404. Work on `COc1ccc(/C=N/NC(=O)c2ccc(CN3c4cccc5cccc(c45)S3(=O)=O)cc2)cc1` yielded a z-score of -0.221. In the case of `Cc1ccc(OCC(=O)NNC(=O)C(C)Sc2ncnc3sc(C)c(C)c23)cc1` (centres undefined), the z-score is reported as active: 7.7. In the case of `CCOC(=O)c1c(-c2ccc(C)cc2)csc1NC1=NS(=O)(=O)c2ccccc21`, the z-score is reported as 0.234. `CCC(C)(C)n1nnnc1C(c1ccncc1)N1CCN(c2cccc(OC)c2)CC1` (centres undefined) was tested, and the z-score was -0.581. `Cc1cc(C)n2ncc(C(=O)NCc3ccccc3)c2n1` gave a z-score of -1.01. In the case of `COc1cc2c(cc1OC)CN(CC(=O)Nc1ccc(C#N)cc1)CC2`, the z-score is reported as -0.227. Work on `CC(=O)NCCOc1ccc(C(=O)O)cc1` yielded a z-score of 0.21. `Oc1c(C(c2ccco2)N2CCC3(CC2)OCCO3)sc2ncnn12` (centres undefined) gave a z-score of -0.187. With `COc1cccc(C(=O)OC(C)CN2CCCC2)c1` (centres undefined) the z-score was -0.531. For `O=C1CC(C(F)(F)C(F)(F)C(F)(F)C(F)(F)F)=Nc2ccccc2N1`, the z-score was -0.248. `CCOC(=O)c1cccnc1NC(=O)c1ccncc1` showed a z-score of 0.0523. For `CC(C)(C)C(=O)Nc1sc2c(c1-c1nc3ccccc3[nH]1)CCCC2`, the z-score was 0.132. `CC(C)(C)n1nnnc1C(c1ccccc1F)N(Cc1ccco1)CC1CCCO1` (centres undefined) showed a z-score of -0.39. In the case of `CC(C)C(=O)Nc1cccc2nsnc12`, the z-score is reported as -0.858. With `Cc1ccc(CSc2nnc(SCC(=O)N/N=C/C=C/c3ccccc3[N+](=O)[O-])s2)cc1` the z-score was 0.183. `CCNC(=S)NS(=O)(=O)c1ccc(C)cc1` was tested, and the z-score was -0.000771. `COc1ccc(S(=O)(=O)NCCN2CCOCC2)c2ccccc12` gave a z-score of 1. `O=C(OCC(=O)c1c[nH]c2ccccc12)c1ccc(Br)o1` showed a z-score of -0.145. `CC1CCC(C(=O)NC(C(=O)NCc2cccnc2)C(C)C)CC1` (centres undefined) was tested, and the z-score was -1.4. With `Cc1nc(CS(=O)(=O)c2ccc(Cl)cc2)cc(N2CCOCC2)n1` the z-score was 0.0281. Compound `Cn1c(=O)cc(OCCCC(=O)N2CCN(c3ccccc3)CC2)c2ccccc21` has a z-score of -0.127. `COc1ccc(CNC(=O)C(NS(=O)(=O)c2ccc3c(c2)CCCN3C(C)=O)C(C)C)cc1` (centres undefined) was tested, and the z-score was -0.394. Work on `CC(=O)N1CCN(S(=O)(=O)c2cccc(C(=O)NC3CCCc4ccccc43)c2)CC1` (centres undefined) yielded a z-score of 0.0317. Work on `Nc1nc(Sc2ccc(C(F)(F)F)cc2[N+](=O)[O-])n[nH]1` yielded a z-score of 0.313. For `Cc1ccc(NC(=O)CC(C)N2CCCC2)cc1` (centres undefined), the z-score was -0.269. Compound `CN(Cc1ccccc1)C(=O)CN(C1CCCCC1)S(C)(=O)=O` has a z-score of 0.423. Work on `CCOc1cc(C)c(C(C)C)cc1S(=O)(=O)n1ccc(C)n1` yielded a z-score of -1.39. Compound `CC(C)(C)C1CCc2c(sc(NC(=O)c3cccs3)c2C(N)=O)C1` (centres undefined) has a z-score of -1.18. `CC(=O)Nc1ccc(NC(=O)C(C)OC(=O)c2ccc(OCc3c(C)noc3C)cc2)cc1` (centres undefined) showed a z-score of -0.832. Compound `Oc1cccc(/C=N/NC(=S)Nc2cccnc2)c1O` has a z-score of -0.0902. For `COc1cc(C2C(C#N)=C(N)Oc3cc(C)n(CC4CCCO4)c(=O)c32)cc2c1OCO2` (centres undefined), the z-score was 1.13. Compound `Cc1c(NC(=O)/C=C/c2cn(-c3ccccc3)nc2-c2ccccc2)c(=O)n(-c2ccccc2)n1C` has a z-score of -0.381. For `O=C(CNC(=O)/C=C/c1ccccc1)N=Nc1c(O)n(Cc2ccccc2)c2ccccc12`, the z-score was 0.491. `COc1cccc2cc(C(=O)N3CCC(C)CC3)c(=O)oc12` showed a z-score of -0.528. `COc1ccccc1CNC(=O)C1CCCN(S(=O)(=O)c2c(C)[nH]c(=O)[nH]c2=O)C1` (centres undefined) was tested, and the z-score was -0.16. For `Fc1ccccc1N1CCN(C(c2ccccn2)c2nnnn2C2CCCCC2)CC1` (centres undefined), the z-score was -0.0672. `O=C(c1cc(Cl)nc2ccccc12)N1CCCCC1` gave a z-score of 0.0309. With `O=C(c1ccc2ccccc2c1)c1c[nH]cc1-c1ccccc1` the z-score was -0.152. `S=c1oc(-c2ccncc2)nn1CCc1ccncc1` gave a z-score of -0.237. For `CC(C)Oc1ccc(Cn2c(-c3ccco3)n[nH]c2=S)cc1`, the z-score was 0.738. Compound `CN(c1ccc(C(=O)NCc2ccc3c(c2)OCO3)cc1)S(C)(=O)=O` has a z-score of 0.173. With `O=C(NC(=O)N1CCN(c2ccc(F)cc2)CC1)c1ccccc1` the z-score was 0.0399. With `COc1cc(OC)cc(C(=O)NNC(=O)c2ccccn2)c1` the z-score was 0.911. Work on `Cc1ccccc1NC(=O)C1Cc2ccccc2C(=O)O1` (centres undefined) yielded a z-score of 0.102. Work on `CCCSc1nnc(-c2ccccc2NC(=O)CC)c(=O)[nH]1` yielded a z-score of -0.696. Work on `O=C(NCCCO)C(=O)NCCc1ccc(Cl)cc1` yielded a z-score of 0.167. Work on `Cc1cc(C)nc(SCC(=O)n2c3c(c4ccccc42)CCCC3)n1` yielded a z-score of -0.336. `COc1cccc(CN(C(=O)Cc2c[nH]c3ccccc23)C(C(=O)NC2CCCCC2)c2ccc(C)o2)c1` (centres undefined) was tested, and the z-score was -0.706. Compound `CCCC(NS(=O)(=O)c1ccc(C)cc1)C(=O)O` (centres undefined) has a z-score of 0.58. Work on `COCc1cc(C2C(C(=O)c3ccco3)=C(O)C(=O)N2CCOCCO)ccc1O` (centres undefined) yielded a z-score of 0.0385. `CS(=O)(=O)N(CC(=O)Nc1ccc2c(c1)OCCO2)Cc1ccccc1` was tested, and the z-score was -0.179. Compound `O=C(NCc1ccccc1Cl)C1CCN(S(=O)(=O)N2CCCCC2)CC1` has a z-score of 1.32. `CCCc1nc2ccccc2n2cc3c(=O)n(C)c(=O)n(C)c3c12` gave a z-score of 0.0227. `CCOC(=O)C1CCCN(c2nc3ccccc3nc2C(C#N)C(=O)OC(C)C)C1` (centres undefined) was tested, and the z-score was -0.35. For `CCn1c(=N)n(CC(=O)OC)c2ccccc21`, the z-score was -0.45. Work on `COC(=O)Nc1sc2c(c1C(=O)N1CCOCC1)CCC(C)C2` (centres undefined) yielded a z-score of 0.0522. `Cc1ccc(-c2nnc(N3CCN(S(C)(=O)=O)CC3)c3ccccc23)cc1` was tested, and the z-score was 0.51. Work on `O=C(CSc1nc(-c2ccccc2)cs1)NCc1ccco1` yielded a z-score of -0.112. `CCN1C(=O)/C(=C/c2cn(C)nc2C)SC1=S` was tested, and the z-score was -0.188. In the case of `Cn1c(=O)c2c(ncn2CC(=O)N/N=C/C=C/c2ccccc2)n(C)c1=O`, the z-score is reported as -0.372. For `CCn1c(SCC(=O)NC2CCCCC2)nnc1-c1cc2cccc(OC)c2o1`, the z-score was -1.02. Work on `Cc1ccc(OCC(=O)OCc2c(C)noc2C)cc1C` yielded a z-score of -0.167. For `COc1ccc(-c2cc(C(=O)NCc3cccnc3)no2)cc1OC`, the z-score was 0.108. `O=C(Nc1ccc(Cl)cn1)C1CCCN1S(=O)(=O)c1ccc(Cl)cc1` (centres undefined) was tested, and the z-score was -0.562. Work on `Cc1ccc(NC(=O)CSc2ncc(S(=O)(=O)c3ccccc3)c(=O)[nH]2)cc1C` yielded a z-score of 0.179. `O=C(O)CCCCCNC(=O)c1ccccc1Br` showed a z-score of -0.0928. Compound `COc1ccc(N2CCN(CC(=O)Nc3cc4c(cc3C(C)=O)OCO4)CC2)cc1` has a z-score of -0.0992.
